According to EP4653451A1, “POLYPEPTIDE COMPOUND AND USE THEREOF” (Chengdu New Radiomedicine Technology Co., Ltd., priority 2023, dated 2024):
Counter-ions that a name gives are not always drawn. At least one peptide structure holds a part that was inferred or is arguable (an end, a ring closure or a residue). Numbered stars: 1 amine (or outer) side, 2 acyl side, 3 side chain; on linkers, the order of the positions; unused ones are H or OH. Bridge positions count the residues as written; N and C are the ends. Square brackets hold non-standard residues; d marks the D form. Peptide text beside a SMILES is read from it. * marks the point of attachment. TBMB(SCH2CH2NH-DOTA) = O=C(O)CN1CCN(CC(=O)O)CCN(CC(=O)NCCSCc2cc(C[*:1])cc(C[*:2])c2)CCN(CC(=O)O)CC1; 1Nal = N[C@@H](Cc1cccc2ccccc12)C(=O)O; mXylylene = c1cc(C[*:1])cc(C[*:2])c1; NH(4-picolyl) = c1cc(CN*)ccn1; β3hC = N[C@@H](CS)CC(=O)O; Nle = CCCC[C@H](N)C(=O)O; Hexanoyl = CCCCCC(=O)*; NHcPent = C1CCC(N*)C1; NHBn = c1ccc(CN*)cc1; NHPh = c1ccc(N*)cc1; NHPentyl = CCCCCN*; X3 = C1C2CC1(N*)C2; X2 = C1CCC(CN*)C1

Tested on: HEK-293-FAP cells
Experiment: Efficacy experiment in HEK-293-FAP tumor-bearing mice (volume of tumor)
Type: in vivo, NOG tumor-bearing mouse
Conditions: in words; 0.8 mCi group versus 0.4 mCi group

Compound	inhibitory effect on tumors, dose dependence
CCCCCC(=O)N[C@H]1CSCc2cc(CSCCNC(=O)CN3CCN(CC(=O)O)CCN(CC(=O)O)CCN(CC(=O)O)CC3)cc(c2)CSC[C@@H](CC(=O)O)NC(=O)[C@H](Cc2cccc3ccccc23)NC(=O)[C@H](CCC(N)=O)NC(=O)[C@H]([C@@H](C)O)NC(=O)[C@@H]2CCCN2C(=O)[C@@H]2CCCN2C1=O [Compound 29] (Hexanoyl-CPPTQ[1Nal][β3hC]-OH; linker 1-7 via TBMB(SCH2CH2NH-DOTA))	the inhibitory effect of the 0.8 mCi group on tumors was better than that of the 0.4 mCi group

Same assay, conditions: in words; 21st day, both 0.8 mCi and 0.4 mCi groups

Compound	inhibitory effects on tumors compared with ^177Lu-3BP-3554
CCCCCC(=O)N[C@H]1CSCc2cc(CSCCNC(=O)CN3CCN(CC(=O)O)CCN(CC(=O)O)CCN(CC(=O)O)CC3)cc(c2)CSC[C@@H](CC(=O)O)NC(=O)[C@H](Cc2cccc3ccccc23)NC(=O)[C@H](CCC(N)=O)NC(=O)[C@H]([C@@H](C)O)NC(=O)[C@@H]2CCCN2C(=O)[C@@H]2CCCN2C1=O [Compound 29] (Hexanoyl-CPPTQ[1Nal][β3hC]-OH; linker 1-7 via TBMB(SCH2CH2NH-DOTA))	better than those of ^177Lu-3BP-3554 0.8 mCi group

Same assay, conditions: in words; single injection on day 0, volume of tumor up to day 21

Compound	inhibition of tumor growth
CCCCCC(=O)N[C@H]1CSCc2cc(CSCCNC(=O)CN3CCN(CC(=O)O)CCN(CC(=O)O)CCN(CC(=O)O)CC3)cc(c2)CSC[C@@H](CC(=O)O)NC(=O)[C@H](Cc2cccc3ccccc23)NC(=O)[C@H](CCC(N)=O)NC(=O)[C@H]([C@@H](C)O)NC(=O)[C@@H]2CCCN2C(=O)[C@@H]2CCCN2C1=O [Compound 29] (Hexanoyl-CPPTQ[1Nal][β3hC]-OH; linker 1-7 via TBMB(SCH2CH2NH-DOTA))	significantly inhibit tumor growth
CCCCCC(=O)N[C@H]1CSCc2cc(CSCCNC(=O)CN3CCN(CC(=O)O)CCN(CC(=O)O)CCN(CC(=O)O)CC3)cc(c2)CSC[C@@H](C(=O)O)NC(=O)[C@H](Cc2ccccc2)NC(=O)[C@H](CCC(N)=O)NC(=O)[C@H]([C@@H](C)O)NC(=O)[C@@H]2CCCN2C(=O)[C@@H]2CCCN2C1=O [^177Lu-3BP-3554, metal not drawn, reference compound]	significantly inhibit tumor growth

Molecular target: T1, human recombinant PREP protein (Homo sapiens, UniProt P48147)
T1 construct: purchased R&D systems 4308-SE-010
T1 sequence (P48147 1-710): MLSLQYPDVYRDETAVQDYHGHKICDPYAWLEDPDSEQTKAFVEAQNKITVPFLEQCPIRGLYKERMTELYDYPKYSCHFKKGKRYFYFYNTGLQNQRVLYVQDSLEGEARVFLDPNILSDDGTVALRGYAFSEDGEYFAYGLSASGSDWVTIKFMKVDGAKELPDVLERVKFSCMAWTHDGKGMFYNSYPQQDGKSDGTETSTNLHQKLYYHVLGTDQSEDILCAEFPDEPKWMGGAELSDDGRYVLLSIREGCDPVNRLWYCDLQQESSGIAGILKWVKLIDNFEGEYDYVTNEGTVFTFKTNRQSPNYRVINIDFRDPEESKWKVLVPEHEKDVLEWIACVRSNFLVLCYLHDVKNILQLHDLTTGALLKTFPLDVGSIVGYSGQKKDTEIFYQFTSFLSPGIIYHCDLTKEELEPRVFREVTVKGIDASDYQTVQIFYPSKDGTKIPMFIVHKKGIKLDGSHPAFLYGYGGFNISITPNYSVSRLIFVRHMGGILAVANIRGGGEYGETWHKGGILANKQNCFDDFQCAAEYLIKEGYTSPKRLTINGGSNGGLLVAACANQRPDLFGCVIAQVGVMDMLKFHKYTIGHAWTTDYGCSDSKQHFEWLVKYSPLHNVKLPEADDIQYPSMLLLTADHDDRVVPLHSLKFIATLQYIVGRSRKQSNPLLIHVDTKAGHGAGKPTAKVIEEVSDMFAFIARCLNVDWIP
Experiment: Inhibitory activity against PREP protease activity, reported as PREP/FAP IC50 ratio
Type: biochemical
Conditions: ratio of PREP IC50 to FAP IC50
Method: The human recombinant PREP protein (R&D systems, 4308-SE-010) was formulated into a 125 pM working solution with a assay buffer (25 mM Tris-HCl, 250 mM NaCl, 2.5 mM DTT, 1 mg/mL BSA), and the PREP substrate (Z-Gly-Pro-AMC (LEONBIO, 68542-93-8)) was diluted to a 125 µM PREP substrate working solution with the assay buffer. 40 µl of PREP working solution and 20 µl of compounds at different concentrations (4-fold dilution) were taken, then 40 µl of PREP substrate working solution was added, and the mixture was uniformly mixed on a shaker at room temperature for 1 min. The uniformly mixed mixture was reacted at room temperature in the dark for 90 min. Reading was made by microplate reader at excitation and emission wavelengths of 380 nm and 460 nm. The original data was saved, and the IC50 value of the compound was obtained by analyzing the data with Graphpad PRISM.

Compound	PREP/FAP
CCCCCC(=O)N[C@H]1CSCc2cccc(c2)CSC[C@@H](C(=O)O)NC(=O)[C@H](Cc2ccccc2)NC(=O)[C@H](CCC(N)=O)NC(=O)[C@H]([C@@H](C)O)NC(=O)[C@@H]2CCCN2C(=O)[C@@H]2CCCN2C1=O [Compound 3BP-4186, reference compound]	F (100 > F)
CCCCCC(=O)N[C@H]1CSCc2cc(CSCCNC(=O)CN3CCN(CC(=O)O)CCN(CC(=O)O)CCN(CC(=O)O)CC3)cc(c2)CSC[C@@H](CC(=O)O)NC(=O)[C@H](Cc2cccc3ccccc23)NC(=O)[C@H](CCC(N)=O)NC(=O)[C@H]([C@@H](C)O)NC(=O)[C@@H]2CCCN2C(=O)[C@@H]2CCCN2C1=O [Compound 11, Hex-Cys-Pro-Pro-Thr-Gln-1Nal-beta-HomoCys (Cys bridge TBMB (DOTA-AET)) trifluoroacetate] (Hexanoyl-CPPTQ[1Nal][β3hC]-OH; linker 1-7 via TBMB(SCH2CH2NH-DOTA))	A (A > 10000)
CCCCCC(=O)N[C@H]1CSCc2cccc(c2)CSC[C@@H](CC(N)=O)NC(=O)[C@H](Cc2cccc3ccccc23)NC(=O)[C@H](CCC(N)=O)NC(=O)[C@H]([C@@H](C)O)NC(=O)[C@@H]2CCCN2C(=O)[C@@H]2CCCN2C1=O [Compound 31] (Hexanoyl-CPPTQ[1Nal][β3hC]-NH2; linker 1-7 via mXylylene)	C (3300 > C > 1000)
CCCCCNC(=O)C[C@@H]1CSCc2cccc(c2)CSC[C@H](NC(=O)CCCCC)C(=O)N2CCC[C@H]2C(=O)N2CCC[C@H]2C(=O)N[C@@H]([C@@H](C)O)C(=O)N[C@@H](CCC(N)=O)C(=O)N[C@@H](Cc2cccc3ccccc23)C(=O)N1 [Compound 32] (Hexanoyl-CPPTQ[1Nal][β3hC]-NHPentyl; linker 1-7 via mXylylene)	D (1000 > D > 330)
CCCCCC(=O)N[C@H]1CSCc2cccc(c2)CSC[C@@H](CC(=O)NCc2ccccc2)NC(=O)[C@H](Cc2cccc3ccccc23)NC(=O)[C@H](CCC(N)=O)NC(=O)[C@H]([C@@H](C)O)NC(=O)[C@@H]2CCCN2C(=O)[C@@H]2CCCN2C1=O [Compound 33] (Hexanoyl-CPPTQ[1Nal][β3hC]-NHBn; linker 1-7 via mXylylene)	D (1000 > D > 330)
CCCCCC(=O)N[C@H]1CSCc2cccc(c2)CSC[C@@H](CC(=O)NC2CCCC2)NC(=O)[C@H](Cc2cccc3ccccc23)NC(=O)[C@H](CCC(N)=O)NC(=O)[C@H]([C@@H](C)O)NC(=O)[C@@H]2CCCN2C(=O)[C@@H]2CCCN2C1=O [Compound 34] (Hexanoyl-CPPTQ[1Nal][β3hC]-NHcPent; linker 1-7 via mXylylene)	E (330 > E > 100)
CCCCCC(=O)N[C@H]1CSCc2cccc(c2)CSC[C@@H](CC(=O)NCC2CCCC2)NC(=O)[C@H](Cc2cccc3ccccc23)NC(=O)[C@H](CCC(N)=O)NC(=O)[C@H]([C@@H](C)O)NC(=O)[C@@H]2CCCN2C(=O)[C@@H]2CCCN2C1=O [Compound 35] (Hexanoyl-CPPTQ[1Nal][β3hC]-X2; linker 1-7 via mXylylene)	D (1000 > D > 330)
CCCCCC(=O)N[C@H]1CSCc2cccc(c2)CSC[C@@H](CC(=O)Nc2ccccc2)NC(=O)[C@H](Cc2cccc3ccccc23)NC(=O)[C@H](CCC(N)=O)NC(=O)[C@H]([C@@H](C)O)NC(=O)[C@@H]2CCCN2C(=O)[C@@H]2CCCN2C1=O [Compound 36] (Hexanoyl-CPPTQ[1Nal][β3hC]-NHPh; linker 1-7 via mXylylene)	E (330 > E > 100)
CCCCCC(=O)N[C@H]1CSCc2cccc(c2)CSC[C@@H](CC(=O)NCc2ccncc2)NC(=O)[C@H](Cc2cccc3ccccc23)NC(=O)[C@H](CCC(N)=O)NC(=O)[C@H]([C@@H](C)O)NC(=O)[C@@H]2CCCN2C(=O)[C@@H]2CCCN2C1=O [Compound 37] (Hexanoyl-CPPTQ[1Nal][β3hC]-{NH(4-picolyl)}; linker 1-7 via mXylylene)	D (1000 > D > 330)
CCCCCC(=O)N[C@H]1CSCc2cccc(c2)CSC[C@@H](CC(=O)NC23CC(C2)C3)NC(=O)[C@H](Cc2cccc3ccccc23)NC(=O)[C@H](CCC(N)=O)NC(=O)[C@H]([C@@H](C)O)NC(=O)[C@@H]2CCCN2C(=O)[C@@H]2CCCN2C1=O [Compound 38] (Hexanoyl-CPPTQ[1Nal][β3hC]-X3; linker 1-7 via mXylylene)	D (1000 > D > 330)
CCCC[C@H](N)C(=O)N[C@H]1CSCc2cccc(c2)CSC[C@@H](CC(=O)O)NC(=O)[C@H](Cc2cccc3ccccc23)NC(=O)[C@H](CCC(N)=O)NC(=O)[C@H]([C@@H](C)O)NC(=O)[C@@H]2CCCN2C(=O)[C@@H]2CCCN2C1=O [Compound 39] (H-[Nle]CPPTQ[1Nal][β3hC]-OH; linker 2-8 via mXylylene)	D (1000 > D > 330)
